The campaign covered roughly 52,000 compounds. About 1,700 (3.3%) were called active. No stated cut-off is given here; in the data, active means survival mostly below about 52% (no sharp cut-off); inactive means mostly above about 56%. This is one part of the list.
What follows are compounds tested on Wild type (assay: growth inhibition of S. aureus wild type versus tarO mutant, primary screen, teichoic acid synthesis inhibitors, RN4220, OD600 (AID 463173)). Details: S. aureus RN4220 wild type/DeltatarO growth, OD600, 18 h, hits give low values, screened at 18.75 µg/mL (by protocol).

| Compound | survival |
| --- | --- |
| CCCCn1c(=N)n(CCOc2ccccc2OC)c2ccccc21 | inactive: 81% |
| Cc1ccc(C(=O)c2oc3ccccc3c2NC(=O)Cc2ccccc2)cc1 | inactive: 53% |
| CCOc1ccc(-c2nc(SCC(=O)Nc3cc(F)ccc3F)n3[nH]c(=O)cc3n2)cc1 | inactive: 77% |
| NCCCSC1=NCCCN1 | inactive: 111% |
| CCn1nnc2cc(C(=O)Nc3ccc(Br)cc3F)ccc21 | inactive: 67% |
| CCOC(=O)c1c(S(=O)(=O)N2CCC(C(=O)N3CCN(c4ccc(F)cc4)CC3)CC2)c(C)n(C)c1C | inactive: 73% |
| Cc1ccc(NC(=O)C2CCCN2S(=O)(=O)c2ccc3c(c2)n(C)c(=O)c(=O)n3C)cc1C (centres undefined) | inactive: 118% |
| O=C1N(Cc2ccccc2)c2ccccc2C1(O)c1c[nH]c2ccccc12 (centres undefined) | inactive: 67% |
| Cn1c(=O)c2c(SCC(=O)N3CCc4ccccc43)nc(-c3ccc(Cl)cc3)nc2n(C)c1=O | inactive: 132% |
| O=C(NCCCN1CCN(c2ccccc2F)CC1)c1ccc2nc(N3CCCCC3)sc2c1 | inactive: 79% |
| O=C(Nc1ccc(C(F)(F)F)cc1)C(Cc1ccccc1)n1cccc1 (centres undefined) | active: -2% |
| CC(=O)Nc1cccc(C(=O)NCc2ccc3c(c2)CCN3C(=O)c2ccc(F)cc2)c1 | inactive: 92% |
| Cc1c(CCNC(=O)C(C)(C)C)sc2nc(-c3ccc(F)cc3)nn12 | inactive: 82% |
| COc1cccc(NS(=O)(=O)c2ccc3[nH]cc(C(=O)N4CCCC4)c(=O)c3c2)c1 | inactive: 92% |
| Cc1cc2c(cc3c(SCc4ccccc4Cl)nnc(C)n32)o1 | inactive: 53% |
| Cc1cc(NC(=O)c2ccc(NC(=O)CCS(=O)(=O)c3cccs3)cc2)ccc1Br | inactive: 70% |
| CCN(C(=O)C1CCCN(c2ncnc3c2nc2n3CCCCC2)C1)c1cccc(Cl)c1 (centres undefined) | inactive: 105% |
| CCn1c(COc2cccc(C)c2)nnc1SCC(=O)N1C(C)CCCC1C (centres undefined) | inactive: 116% |
| COc1ccccc1NC(=O)C1=C(C)Nc2nc(SCc3ccccc3)nn2C1c1ccncc1 (centres undefined) | inactive: 83% |
| CC(=O)c1ccc(NC(=O)COCc2cc(-c3ccc(F)cc3)on2)cc1 | inactive: 75% |
| COc1cc(OC)c(N(C)C(=O)c2sc3nc4n(c(=O)c3c2C)CCCCC4)cc1Cl | inactive: 82% |
| COc1cc(NC(=O)Cn2nc3c(cc2=O)CC(C)CC3)cc(OC)c1OC (centres undefined) | inactive: 75% |
| Cc1cc(Nc2cc(F)ccc2C)nc(-n2nc(C)cc2C)n1 | inactive: 67% |

| Compound | survival |
| --- | --- |
| CCn1cc(C(=O)N2CCN(c3ccc(OC)cc3)CC2)c(=O)c2cc(S(=O)(=O)N3CCOCC3)ccc21 | inactive: 141% |
| CN(C)S(=O)(=O)N(CC(=O)NCCSc1ccccc1)c1ccccc1 | inactive: 71% |
| Cc1ccc(N(C(=O)Cn2nnc(-c3ccc(C)o3)n2)C(C(=O)NCC2CCCO2)c2ccc(F)cc2)cc1 (centres undefined) | inactive: 103% |
| Cc1c(C(=O)N2CCC(C)CC2)c(S(=O)(=O)Nc2ccc(OC(F)(F)F)cc2)c(C)n1C | inactive: 63% |
| CC(C)N(Cc1ccccc1)C(=O)CN1C(=O)CSc2ccc(S(=O)(=O)N3CCCC3)cc21 | inactive: 100% |
| COc1ccc2[nH]cc(CCN=C(NC(=O)c3ccccc3C)Nc3nc(C)cc(C)n3)c2c1 | inactive: 41% |
| COc1ccc(OCC(=O)Nc2ccc(-c3nc4cc(C)c(C)cc4o3)cc2)cc1 | inactive: 77% |
| O=C(Cn1ncc2c3ccccc3n(Cc3ccc(F)cc3)c2c1=O)NCCCN1CCCCC1 | inactive: 85% |
| COc1ccc(N2CCN(Cc3nnnn3C3CCCCC3)CC2)cc1 | inactive: 109% |
| CC1CCN(C(=O)CN2C(=O)C(C)(C)Oc3ccc(C(=O)NC(C)C)cc32)CC1 | inactive: 99% |
| N#Cc1c[nH]n2c(NC3CCCC3)c(-c3ccc(Cl)cc3)nc12 | inactive: 51% |
| Cc1ccc(CNc2nc3ccc(C)cc3n3nnnc23)cc1 | inactive: 93% |
| CCc1ccc(NC(=O)C(=O)NCCc2sc3nc(-c4ccc(OC)cc4)nn3c2C)cc1 | inactive: 81% |
| CC(=O)Nc1nc(N(C)C)nc(N(C)C)n1 | inactive: 90% |
| CN(C)C(=O)NC1C=CS(=O)(=O)C1 (centres undefined) | inactive: 102% |
| CC1=C(C(=O)Nc2ccccc2)C(c2ccc(O)cc2)n2nc(SCc3ccccc3)nc2N1 (centres undefined) | inactive: 115% |
| CCOc1ccccc1NC(=O)N1CCC2(CC1)Oc1ccccc1C(=O)N2Cc1ccccc1F | inactive: 83% |
| Cc1ccc(NS(=O)(=O)c2ccc(-c3cc(C)no3)cc2)c(Br)c1 | inactive: 78% |
| Cc1ccc(CCNC(=O)c2c(C)nn(-c3ccc(F)cc3)c2-n2cccc2)cc1 | inactive: 60% |
| Cc1ccccc1NC(=O)CSc1ccc(-c2cccs2)nn1 | inactive: 119% |
| O=c1[nH]c(SCc2ccc([N+](=O)[O-])cc2)nc2c1CCCC2 | inactive: 83% |
| COc1ccc(Cl)cc1NC(=O)CCn1c(=O)oc2ccccc21 | inactive: 63% |
| COc1ccc(NC(=O)c2cc(C3CC3)nc3c2c(C)nn3-c2ccccc2)cc1OC | inactive: 72% |

| Compound | survival |
| --- | --- |
| COc1ccc(NC(=O)Nc2nnc(N(CC(C)C)CC(C)C)s2)c(OC)c1 | inactive: 96% |
| CCN(C(=O)c1cc2c(s1)-c1ccccc1OC2)c1cccc(C(F)(F)F)c1 | active: 14% |
| O=C(CSc1nnc(COc2ccccc2)o1)Nc1cc(C(F)(F)F)ccc1Cl | inactive: 66% |
| Cc1ccc(CNC(=O)Cn2cccc2C(=O)c2ccccc2C)cc1 | inactive: 82% |
| O=C(Cn1c(-c2cccs2)cc2ccccc21)NCCCN1CCN(c2ccccc2F)CC1 | inactive: 97% |
| O=C(CSc1nccn1Cc1ccccc1)Nc1ccc2c(c1)OCCO2 | inactive: 68% |
| Cc1ccc(NC(=O)c2c(NC(=O)C(F)(F)F)sc3c2CCCCC3)cc1 | active: -3% |
| N#C/C(=C\c1cn(CC(=O)N2CCCC2)c2ccccc12)C(=O)NCc1ccc2c(c1)OCO2 | inactive: 108% |
| COc1ccc(NC(=O)c2cc3c(C)nn(-c4ccccc4)c3s2)c(OC)c1 | inactive: 63% |
| Cc1c(Cl)cccc1Nc1nn2c(=O)c3ccc(C(=O)N(C)Cc4ccccc4)cc3nc2s1 | inactive: 71% |
| Cc1cc(C)cc(-n2c(SCC(=O)NC3CCCCC3)nc3c([nH]c4ccccc43)c2=O)c1 | inactive: 83% |
| CCOc1cc(S(=O)(=O)NCCc2c(C)[nH]c3ccc(C)cc23)ccc1Br | inactive: 134% |
| Cc1ccc(NC(=O)CCS(=O)(=O)c2ccc3c(c2)oc(=O)n3C)c(Br)c1 | inactive: 71% |
| Cc1ccc2nc(COc3cccc(NC(=O)COc4ccc(F)cc4)c3)cc(=O)n2c1 | inactive: 45% |
| COc1ccc(-c2nc(CSCC(=O)N3CCN(c4ccccc4)CC3)c(C)o2)cc1 | inactive: 53% |
| COc1ccc(N2CCN(C(=O)CSCc3ccc(C)cc3)CC2)cc1 | inactive: 130% |
| CC(=O)c1cccc(NS(=O)(=O)c2cccc(S(=O)(=O)c3ccc(Br)cc3)c2)c1 | inactive: 76% |
| O=c1[nH]c(SCc2c(F)cccc2Cl)nc2c1CCCC2 | inactive: 91% |
| c1cncc(C2=Nc3ccccc3C(c3cccnc3)=NN2)c1 | inactive: 107% |
| O=C(CN1CCN(C2CCCCC2)CC1)N(c1ccccc1)c1ccc(O)cc1 | inactive: 115% |
| COCCNC(=O)c1[nH]c2cc(C)ccc2c1Sc1ccc(Cl)cc1 | inactive: 87% |
| COc1ccc(C2=Nn3c([n+](C)c4ccccc43)SC2)cc1 | inactive: 26% |
| O=C(Nc1cccc(-c2nc3ccccc3o2)c1)c1cccc2c(Cl)cccc12 | inactive: 68% |

| Compound | survival |
| --- | --- |
| Cc1c(Cl)cccc1NC(=O)c1cc2nc(-c3ccc4c(c3)OCO4)cc(C(F)(F)F)n2n1 | inactive: 76% |
| CC1=CC(c2ccccc2)=Nc2ccc(C)cc2N1 | inactive: 103% |
| O=C(COc1ccccc1)OCc1cc(=O)n2nc(-c3cccs3)sc2n1 | inactive: 75% |
| CC(C)(C)OC(=O)N1CCC(c2c(C(=O)Nc3ccc4c(c3)OCO4)cnn2-c2ccccc2)CC1 | inactive: 71% |
| COc1ccc(CNC(=O)c2cnc3ccc(C)cn3c2=O)cc1 | inactive: 90% |
| Cc1ccccc1NC(=O)c1ccc(N(Cc2ccccc2)S(C)(=O)=O)cc1 | inactive: 69% |
| CCc1nn(CC(=O)NC(C)CC)c(=O)c2cc3occc3n12 (centres undefined) | inactive: 78% |
| O=C(Nc1ccccc1F)NC1CCN(Cc2nnnn2Cc2ccc(F)cc2)CC1 | inactive: 108% |
| COc1cccc(OCCn2c(-c3ccc(Br)cc3)nc3ccccc3c2=O)c1 | inactive: 89% |
| O=C(NCc1ccc2c(c1)CCN2C(=O)c1ccncc1)c1ccccc1F | inactive: 128% |
| COc1ccccc1CNc1ncnc2c1nnn2C | inactive: 82% |
| CCOCCCn1c(=N)c(S(=O)(=O)c2ccc(Cl)cc2)cc2c(=O)n3cccc(C)c3nc21 | inactive: 86% |
| COC(=O)c1c(-c2cccs2)csc1NC(=O)c1ccc(C(C)C)cc1 | inactive: 74% |
| COC(=O)c1ccccc1NC(=O)CCS(=O)(=O)c1nc(-c2ccc3c(c2)OCO3)cc(C(F)(F)F)n1 | inactive: 130% |
| COc1cccc(CNC(=O)Cn2c(=O)oc3cc(S(=O)(=O)N4CCCCCC4)ccc32)c1 | inactive: 146% |
| COc1ccccc1NC(=O)C(=O)NCC(c1cccnc1)N1CCc2ccccc2C1 (centres undefined) | inactive: 82% |
| O=C(NCc1ccc(F)cc1)c1ccc2oc(=O)n(Cc3ccccc3)c2c1 | active: -4% |
| COC(=O)c1ccc(NC(=O)CCc2c(C)nn(-c3ccc(N4CCCCC4)nn3)c2C)cc1 | inactive: 83% |
| NC(=O)CSc1nnc(C2CC2)n1Cc1ccccc1 | inactive: 93% |
| CC(=O)Nc1nonc1-c1nnc(SCc2ccccc2)n1C | inactive: 81% |
